The other results are listed elsewhere or left out. The exact form of the protein is not confirmed.
What follows are sequences tested against GST-SBP-ILF3 (Homo sapiens) (UniProt Q12906) (assay: targeted RNA Bind-n-Seq). Conditions: RBNS binding buffer: 25 mM Tris pH 7.5, 150 mM KCl, 3 mM MgCl2, 0.1% Tween, 0.5 mg/mL BSA, 1 mM DTT; 27 nM protein, 750 pM RNA pool; temperature not stated; high values mean tight binding; sequences stand for … in GGGUAAAAGCGAGGUGAA…CGGGACAAGUAUUAUGGG.

Sequence	binding signal (log2 fold change)
UUUUUUUUUUGAGAGUGAUGCACUCUUCUA [tttttgagapaired]	-0.0602
GGUGGUUGUGUUGGCGCCUAACACAGCUAC [gtspaired]	-0.582
GUGUUGUGUGUUGGUCCCUAACACACAGCG [gtspaired]	-0.454
GUGGUUGGUGUUGGCUUCUAACACCGACCG [gtspaired]	-0.663
UUUUUUUUUUGAGACCGGAGCGGUUUCCAG [tttttgagapaired]	0.777
UUUUUUUUUUGAGAGGGCGACCCUCUCCUG [tttttgagapaired]	0.612
UUUUUUUUUUGAGACGGAUCCCGUCUCCUA [tttttgagapaired]	0.646
UUUUUUUUUUGAGAGGGAUACCCUUUCCGG [tttttgagapaired]	0.133
UUUUUUUUUUGAGAGGGAUGCCCUCUCCUG [tttttgagapaired]	0.447
GUGUGUGGUGUUGGACCCUAACACCGCAUA [gtspaired]	-0.115
UUUUUUUUUUGAGACUGGAGCAGUCUCCUG [tttttgagapaired]	0.845
UUUUUUUUUUGAGAUCGAGACGAUCUCCGG [tttttgagapaired]	0.16
UUUUUUUUUUGAGAUGGUGGCUAUCUCCAG [tttttgagapaired]	0.886
UUUUUUUUUUGAGAGCGAGUCGCUCUUCUA [tttttgagapaired]	0.285
GGUGGUUGUGUUGGCCUCUAACACAGCCGC [gtspaired]	-0.735
UUCUCUCUUCCUCCAAUGGAGGAGGAGGGA [ctspaired]	-0.0298
GUGGUGUGUGUUGGCUUCUAACACACAUCG [gtspaired]	-0.524
UUUUUUUUUUGAGAUGGGGUCCAUCUCCUG [tttttgagapaired]	0.43
GUGUGUUGUGUUGGAGCCUAACACAGCGCG [gtspaired]	-0.642
UUUUUUUUUUGAGAGGGAGCCCCUCUUCUA [tttttgagapaired]	0.406
UUUUUUUUUUGAGAUCGGGCCGAUCUCCAG [tttttgagapaired]	0.718
UUUUUUUUUUGAGAACGGUGCGUUCUCCUA [tttttgagapaired]	0.11
UUUUUUUUUUGAGACGGGGACCGUCUCCUA [tttttgagapaired]	0.608
UUUUUUUUUUGAGACGGGAGCCGUUUCCUA [tttttgagapaired]	0.481
UUUUUUUUUUGAGAGGGCAACCCUUUCCAG [tttttgagapaired]	0.365
UUUUUUUUUUGAGAACGGGCCGUUCUCCAG [tttttgagapaired]	0.575

Sequence	binding signal (log2 fold change)
UUUUUUUUUUGAGAUCGGGACGAUCUCCGG [tttttgagapaired]	0.0605
UUUUUUUUUUGAGAUGGGAUCCAUCUCCUA [tttttgagapaired]	0.00666
UUUUUUUUUUGAGAGUGAUACACUCUUCUG [tttttgagapaired]	0.0809
UUUUUUUUUUGAGACUGACACAGUCUCCAG [tttttgagapaired]	0.355
UUUUUUUUUUGAGAUCGGAACGAUCUCCUG [tttttgagapaired]	0.332
UUCUCUCUUCCUCCACGGGAGGAGGGGAGA [ctspaired]	-0.436
GGUUGGUGUGUUGGCUUCUAACACAUCAGC [gtspaired]	-0.533
GUGUUGUGUGUUGGAGCCUAACACACAGCA [gtspaired]	-0.416
UUUUUUUUUUGAGAUGGUAGCUAUCUCCGG [tttttgagapaired]	0.506
UUCUUCUCUCCUCCGCGGGAGGGGGGAAGA [ctspaired]	-0.617
UUUUUUUUUUGAGACUGUAACAGUUUCCAG [tttttgagapaired]	0.439
UUUUUUUUUUGAGAGGGAGACCCUUUCCGG [tttttgagapaired]	0.283
UUUUUUUUUUGAGAGUGCGACAUUCUCCAG [tttttgagapaired]	0.27
UUUUUUUUUUGAGAUCGAGACGAUCUCCAG [tttttgagapaired]	0.238
UUUUUUUUUUGAGACCGAAGCGGUUUCCGG [tttttgagapaired]	0.851
UUUUUUUUUUGAGACGGGCUCCGUCUCCGG [tttttgagapaired]	0.425
GGUUGGUGUGUUGGCGCCUAACACAUCGAC [gtspaired]	-0.442
GUUGGUGGUGUUGGCUCCUAACACCGCCAG [gtspaired]	-0.309
GUGGUGUGUGUUGGAUCCUAACACACGCUA [gtspaired]	-0.622
UUUUUUUUUUGAGAGUGAGACACUCUCCUG [tttttgagapaired]	0.153
UUUUUUUUUUGAGACUGCUCCAGUCUCCUA [tttttgagapaired]	0.587
UUUUUUUUUUGAGAUCGUUCCGAUCUCCAG [tttttgagapaired]	0.366
UUUUUUUUUUGAGAGCGUACCGCUCUCCGG [tttttgagapaired]	0.282
UUUUUUUUUUGAGACGGCUACCGUCUCCAG [tttttgagapaired]	0.513
UUUUUUUUUUGAGAGGGAUGCCCUCUCCUA [tttttgagapaired]	0.364
UUUUUUUUUUGAGAGGGGGCCCCUCUCCGG [tttttgagapaired]	1.17

Sequence	binding signal (log2 fold change)
UUUUUUUUUUGAGAGGGAGGCCCUCUCCAG [tttttgagapaired]	0.611
GGUUGUUGUGUUGGCUCCUAACACAGCAAC [gtspaired]	-0.347
GGUUGUUGUGUUGGUCCCUAACACAACAGC [gtspaired]	-0.213
GGUGGUGGUGUUGGACCCUAACACCGCUAC [gtspaired]	-0.633
GUGUGGUGUGUUGGCGUCUAACACACCGCG [gtspaired]	-0.541
UUUUUUUUUUGAGACUGAGUCAGUCUCCUA [tttttgagapaired]	0.154
UUUUUUUUUUGAGAGGGGACCCCUCUCCUA [tttttgagapaired]	0.638
UUUUUUUUUUGAGACCGACUCGGUCUCCUA [tttttgagapaired]	0.288
UUUUUUUUUUGAGACUGGACCAGUCUCCGG [tttttgagapaired]	0.498
UUUUUUUUUUGAGACCGCUACGGUCUCCGG [tttttgagapaired]	0.373
UUUUUUUUUUGAGAGCGAUACGCUCUUCUA [tttttgagapaired]	0.113
UUUUUUUUUUGAGAGCGAGACGUUCUCCUA [tttttgagapaired]	0.0647
UUUUUUUUUUGAGAUGGCAACUAUCUCCAG [tttttgagapaired]	0.452
UUUUUUUUUUGAGACGGAAACCGUCUUCUG [tttttgagapaired]	0.541
UUUUUUUUUUGAGAUGGAUCCCAUCUCCAG [tttttgagapaired]	0.31
GGUGUGUGUGUUGGUGUCUAACACAUACAC [gtspaired]	-0.542
UUUUUUUUUUGAGACCGCGACGGUCUCCUG [tttttgagapaired]	0.458
UUUUUUUUUUGAGACCGGAGCGGUCUCCUA [tttttgagapaired]	0.404
UUUUUUUUUUGAGAGGGAGCCCCUCUCCGG [tttttgagapaired]	0.539
GUGUGGUGUGUUGGAGCCUAACACAUCACG [gtspaired]	-0.785
UUUUUUUUUUGAGACCGGAACGGUUUCCAG [tttttgagapaired]	0.431
UUUUUUUUUUGAGAUGGUCUCCAUCUCCUA [tttttgagapaired]	0.12
UUUUUUUUUUGAGACGGAAUCCGUUUCCUG [tttttgagapaired]	0.268
UUUUUUUUUUGAGAUGGGAUCCAUUUCCGG [tttttgagapaired]	0.163
GGUUGUGGUGUUGGAUCCUAACACCGCAGC [gtspaired]	-0.533
GUGGUUGGUGUUGGUCCCUAACACCAGCCA [gtspaired]	-0.16

Sequence	binding signal (log2 fold change)
UUUUUUUUUUGAGACGGGAACCGUUUCCUG [tttttgagapaired]	0.572
UUUUUUUUUUGAGAGGGGACCCCUCUUCUA [tttttgagapaired]	0.531
GUGUUGUGUGUUGGAGCCUAACACACAACG [gtspaired]	-0.131
UUUUUUUUUUGAGACGGCGUCCGUCUUCUA [tttttgagapaired]	0.79
UUUUUUUUUUGAGACCGUGGCGGUCUCCGG [tttttgagapaired]	0.545
UUCUCUCUUCCUCCGCGGGAGGAGGGGAGA [ctspaired]	-0.761
UUUUUUUUUUGAGACCGAGACGGUCUCCUG [tttttgagapaired]	0.49
UUUUUUUUUUGAGACCGAGACGGUUUCCGG [tttttgagapaired]	0.742
UUUUUUUUUUGAGAUGGCGACCAUUUCCGG [tttttgagapaired]	0.831
GUGUGUGGUGUUGGUUCCUAACACCGCGCA [gtspaired]	-0.724
GUGGUGUGUGUUGGUACCUAACACACGCCG [gtspaired]	-0.406
GGUGUUGGUGUUGGCAUCUAACACCGAUAC [gtspaired]	-0.569
UUUUUUUUUUGAGAGCGGACCGUUCUCCGG [tttttgagapaired]	0.733
UUUUUUUUUUGAGAGGGAUACCCUUUCCAG [tttttgagapaired]	0.0367
UUUUUUUUUUGAGACUGACUCAGUCUCCGG [tttttgagapaired]	0.247
UUUUUUUUUUGAGAGCGGGUCGUUCUCCGG [tttttgagapaired]	0.339
UUUUUUUUUUGAGAGGGGCUCCCUCUCCGG [tttttgagapaired]	0.67
UUUUUUUUUUGAGAGGGACUCCUUCUCCUG [tttttgagapaired]	0.361
GGUGGUUGUGUUGGUUCCUAACACAGCUAC [gtspaired]	-0.352
UUUUUUUUUUGAGACUGUAUCAGUCUUCUG [tttttgagapaired]	0.249
UUUUUUUUUUGAGAGGGGACCCCUCUCCAG [tttttgagapaired]	0.915
UUUUUUUUUUGAGAGGGCCACCCUCUCCUA [tttttgagapaired]	0.831
UUUUUUUUUUGAGACCGAACCGGUCUCCAG [tttttgagapaired]	0.53
GUGUGUGGUGUUGGCGUCUAACACCACAUA [gtspaired]	-0.676

— publication PMC5892938
